For assay [1], the target named is T1, Hydroxy-TFAM-P-OH-53/66 peptide 31-70, biotinylated, synthesized with hydroxyprolines 53 and 66.
T1 sequence (peptide, hydroxyproline at 53 and 66; biotinylated): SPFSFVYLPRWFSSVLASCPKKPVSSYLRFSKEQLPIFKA
In words: pull-down; biotinylated peptides on streptavidin beads incubated with whole-cell lysates of 786-O or A498 cells expressing HA-VHL for 4 h at 4 °C; immunoblot; only the target purified.

Amino acid sequences for entries named in this document (tags omitted). A change or cut given only in a name is not applied to a line headed by its entry.
UniProt P40337: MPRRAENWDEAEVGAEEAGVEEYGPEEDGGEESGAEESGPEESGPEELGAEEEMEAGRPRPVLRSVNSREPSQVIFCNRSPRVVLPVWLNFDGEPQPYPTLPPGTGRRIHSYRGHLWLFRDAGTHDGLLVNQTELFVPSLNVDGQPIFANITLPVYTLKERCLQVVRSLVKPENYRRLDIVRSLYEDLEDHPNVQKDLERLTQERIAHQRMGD

In assay [2] the target is T2, Hydroxy-HIF2α-P-OH 531 peptide (residues 521 to 543), biotinylated.
T2 sequence (peptide, hydroxyproline at 531; biotinylated): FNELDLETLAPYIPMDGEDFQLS
The description is as above.

For assay [3], the target named is T3, TFAM P50A-Mutant peptide 31-70, biotinylated, after the EGLN3 hydroxylation reaction.
T3 sequence (peptide, biotinylated; subjected to hydroxylation by EGLN3 in vitro): T1 sequence (peptide, hydroxyproline at 53 and 66; biotinylated) with P20A
The experiment in a line: pull-down; biotinylated TFAM peptide on streptavidin agarose beads, hydroxylation reaction with IVT HA-EGLN (2 h), then IVT 35S-HA-VHL overnight at 4 °C; autoradiography; only the target purified.

For assay [4], the target named is T4, TFAM P53/66A-double Mutant peptide 31-70, biotinylated, after the EGLN3 hydroxylation reaction.
T4 sequence (peptide, biotinylated; subjected to hydroxylation by EGLN3 in vitro): T1 sequence (peptide, hydroxyproline at 53 and 66; biotinylated) with P23A, P36A
Described as above.

Assay [5] concerns the target T5, purified His-TFAM, hydroxylated by EGLN3 wild-type (UniProt Q00059).
T5 sequence (chain, hydroxylated in vitro by EGLN3 wild-type (sites not mapped on this protein)): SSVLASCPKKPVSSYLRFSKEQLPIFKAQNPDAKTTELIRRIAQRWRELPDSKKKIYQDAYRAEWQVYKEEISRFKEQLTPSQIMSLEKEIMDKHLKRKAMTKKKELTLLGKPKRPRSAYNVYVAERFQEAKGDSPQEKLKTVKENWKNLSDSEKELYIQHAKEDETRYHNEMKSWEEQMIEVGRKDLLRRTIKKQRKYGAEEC
In words: pull-down; purified His-TFAM (2 μM) on His-tag Dynabeads, hydroxylation reaction with IVT EGLN3 WT or H196A, incubation with purified VHL for 2 h at room temperature, wash, then LONP1 degradation buffer; immunoblot of bound complexes; both purified.

For assay [6], the target named is T1, Hydroxy-TFAM-P-OH-53/66 peptide 31-70, biotinylated, synthesized with hydroxyprolines 53 and 66. The experiment in a line: pull-down; synthetic biotinylated hydroxylated or naïve peptides on beads, capture of IVT 35S-VHL (WT or disease mutants); autoradiography; only the target purified.
In assay [7] the target is T2, Hydroxy-HIF2α-P-OH 531 peptide (residues 521 to 543), biotinylated. The assay is described as above.

This note sets out measurements from paper PMC9236906.

Where a chain is given by its changes, count along the chain named. No constants are given. Whether binding was seen depends on the method and setting. For some assays here: In cells and extracts the contact can be indirect. Some entries that bind do so weakly or less than the wild type. For some assays here: Where a sequence is shown, tags or fusion partners need not be part of it.

“HA-VHL^R200W (Chuvash mutant), expressed in 786-O cells (from UniProt P40337 1-213)”: the binding result in assay [1] and in assay [2] was “binds” each time.
On to “35S-labeled HA-VHL wild-type, in vitro translated (from UniProt P40337 1-213)”, for which the figures for the binding entry in assay [3] and in assay [4] were “binds” and “no binding”, respectively.
On to “purified GST-VHL (from UniProt P40337 1-213)”, for which, in assay [5], the binding entry is “binds”.
Regarding “35S-labeled VHL R200W (Chuvash polycythemia mutant), in vitro translated (from UniProt P40337 1-213)”, the binding entry in assay [6] and in assay [7] was “binds” each time.
On to “35S-labeled VHL Y98H (type 2A mutant), in vitro translated (from UniProt P40337 1-213)”, for which the binding result in assay [7] is listed as “binds”.
